# Measured values taken from PubChem BioAssay (Tox21).
# The inconclusive results got no clear call from the source; some entries with a clear call stand among them for comparison. For some of these results: Potencies of inconclusive entries are left out as doubtful fits. Active and inactive are the calls of the source. Calls follow the shape of the dose curve; as a rule, active = well fitted curve in the direction sought with a large enough effect in the repeat runs; inconclusive = weak or mixed curves; inactive = no such curve, though single readings can be large; an effect the other way counts as inactive or inconclusive.
# Legend:
# [1] = qHTS RealTime-Glo MT Cell Viability Assay in HepG2 cells - 32 hour (AID 1224877); details: RealTime-Glo luminescence; series mostly up to 76.8 µM; also: % is scaled to controls: 0 for no effect and ±100 for the full control effect; nearly all actives have a fitted effect of over 55% in size
# In short: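 Tox21 10K library screened in qHTS format on HepG2 cells carrying RealTime-Glo reagents. Compounds were added after a 5 h preincubation, and the luminescent signal from continuous culture was measured repeatedly during 40 h treatment.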
# [2] = A CellTox Green Cytotoxicity Assay to monitor cytotoxicity in HepG2 cells - 16 hour (AID 1224876); details: CellTox Green fluorescence; series mostly up to 76.8 µM; also: potency is read from the fitted curve at half-maximal effect; nearly all actives have a fitted effect of over 45% in size
# In short: (§1)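 HepG2 cells were seeded together with the CellTox Green dye at 600 cells/well, left 5 h at 37 C/5% CO2, then given compounds in DMSO. Fluorescence from dye bound to dead-cell DNA was read repeatedly over 40 h of treatment at 37 C.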
# [3] = A CellTox Green Cytotoxicity Assay to monitor cytotoxicity in HepG2 cells - 24 hour (AID 1224878); details: CellTox Green fluorescence; series mostly up to 76.8 µM; also: nearly all actives have a fitted effect of over 45% in size; also: potency is read from the fitted curve at half-maximal effect; as to Cytotoxicity: % is scaled to controls: 0 for no effect and ±100 for the full control effect
# In short: as §1
# [4] = A CellTox Green Cytotoxicity Assay to monitor cytotoxicity in HepG2 cells - 40 hour (AID 1224879); details: CellTox Green fluorescence; series mostly up to 76.8 µM; also: nearly all actives have a fitted effect of over 40% in size; also: potency is read from the fitted curve at half-maximal effect; as to cytotoxicity increase: % is scaled to controls: 0 for no effect and ±100 for the full control effect
# In short: as §1
# Tags tell the direction and shape of the fitted curve.
compound,measurement,setting,value
COc1ccccc1[N+](=O)[O-],Potency,[1],inactive
Cc1ccc(C(C)C)cc1O,Potency,[2],"inconclusive [activator, single point]"
same,Potency,[3],"inconclusive [activator, single point]"
same,Potency,[4],"inconclusive [activator, single point]"
COC(=O)CCSCCC(=O)OC,Potency,[1],inactive
O=S1(=O)c2cccc3cccc(c23)N1CCCN1CCN(c2ccc(F)cc2)CC1,Potency,[2],"inconclusive [activator, partial curve, poor fit]"
same,Potency,[3],"inconclusive [activator, partial curve, poor fit]"
same,Potency,[4],"inconclusive [activator, partial curve, poor fit]"
Nc1ccn([C@@H]2O[C@H](CO)[C@@H](O)[C@@H]2O)c(=O)n1,Potency,[1],inactive
CCCC(=O)c1ccccc1,Potency,[1],inactive
CC1=NN(c2cc(Cl)c(S(=O)(=O)O)cc2Cl)C(=O)C1N=Nc1ccc(S(=O)(=O)O)cc1 (configuration not stated),Potency,[2],"inconclusive [activator, single point]"
same,Potency,[3],"inconclusive [activator, single point]"
same,Potency,[4],"inconclusive [activator, single point]"
CCn1ccnc1CC1COc2ccccc2O1 (configuration not stated),Potency,[1],inactive
CCCCCCCC(=O)OCC(O)CO (configuration not stated),Potency,[2],"inconclusive [activator, single point]"
same,Potency,[3],"inconclusive [activator, single point]"
same,Potency,[4],"inconclusive [activator, single point]"
CC(=O)c1ccc(C)cc1,Potency,[1],inactive
CCC(C)(C)C1CCC(O)CC1 (configuration not stated),Potency,[2],"inconclusive [activator, single point]"
same,Potency,[3],"inconclusive [activator, single point]"
same,Potency,[4],"inconclusive [activator, single point]"
CC(C)=NNC(N)=S,Potency,[2],"inconclusive [activator, single point]"
same,Potency,[4],"inconclusive [activator, single point]"
Cc1c[nH]c(=O)[nH]c1=O,Potency,[2],"inconclusive [activator, single point]"
same,Potency,[3],"inconclusive [activator, single point]"
same,Potency,[4],"inconclusive [activator, single point]"
CCCCCCCCCCCCCCCC/C=C/C1CC(=O)OC1=O (configuration not stated),Potency,[1],inactive
CC1(C)O[C@@H]2C[C@H]3[C@@H]4CCC5=CC(=O)C=C[C@]5(C)[C@H]4[C@@H](O)C[C@]3(C)[C@]2(C(=O)CO)O1,Potency,[2],"inconclusive [activator, single point]"
same,Potency,[4],inactive
O=S(=O)(O)c1cccc2ccccc12,Potency,[1],inactive
Cc1ccc(C(C)NC(=O)[C@@H](NC(=O)OC(C)C)C(C)C)cc1 (some centres not stated),Potency,[1],inactive
CCCCSCCCC,Potency,[1],inactive
O=C1c2ccccc2C(=O)C1c1ccccc1,Potency,[1],inactive
CCCCCC(=O)O,Potency,[1],inactive
CN(C)CCN(Cc1ccc(Cl)cc1)c1ccccn1,Potency,[4],inactive
CCOc1ccc(NC(=O)CC(C)=O)cc1,Potency,[4],inactive
c1cc[nH]c1,Potency,[4],"inconclusive [activator, single point]"
O=C(c1ccc(Cl)cc1)c1ccc(Cl)cc1,Potency,[3],"inconclusive [activator, single point]"
same,Potency,[4],"inconclusive [activator, single point]"
O=C1CCCCCCCCCCCC(=O)OCCO1,Potency,[3],"inconclusive [activator, partial curve, poor fit]"
same,Potency,[4],"inconclusive [activator, single point]"
NC(N)=NCCC[C@H](N)C(=O)O,cytotoxicity increase,[4],inactive: -3.66% [at 6.97 µM]
CCCOCC(C)O (configuration not stated),Potency,[4],inactive
CC(N)CN (configuration not stated),Potency,[4],inactive
NS(=O)(=O)c1cc2c(cc1Cl)NCNS2(=O)=O,Potency,[4],inactive
CCCCCC(C)=O,Potency,[3],"inconclusive [activator, partial curve, poor fit]"
same,Potency,[4],"inconclusive [activator, single point]"
CN1CCN(C)CC1,Potency,[4],inactive
Cc1cc2nc(N)sc2cc1C,Potency,[4],inactive
CC(O)(P(=O)(O)O)P(=O)(O)O,Potency,[3],inactive
same,Potency,[4],inactive
COc1ccc(-c2cc(=O)c3c(O)cc(O[C@@H]4O[C@H](CO[C@@H]5O[C@@H](C)[C@H](O)[C@@H](O)[C@H]5O)[C@@H](O)[C@H](O)[C@H]4O)cc3o2)cc1O,Potency,[4],inactive
OCCCO,Potency,[4],inactive
CC(=O)Nc1ccc(N=Nc2cc(C)ccc2O)cc1,Potency,[4],inactive
CN(C)CCC(c1ccc(Cl)cc1)c1ccccn1 (configuration not stated),Potency,[4],"inconclusive [activator, single point]"
C=CS(=O)(=O)O,Potency,[4],inactive
CCCC(=O)Nc1ccc(O)c(C(C)=O)c1,Potency,[4],inactive
Cc1cccnc1,Potency,[4],inactive
CCCCCCCCCCCCOCCO,Potency,[4],"inconclusive [activator, single point]"
Cc1c(I)c(=O)n(-c2ccccc2)n1C,Potency,[4],inactive
CC(C)CC(=O)O,Potency,[4],inactive
CCCCCC(C)O (configuration not stated),Potency,[4],inactive
N=C(N)c1ccc(OCCCOc2ccc(C(=N)N)cc2)cc1,Potency,[4],inactive
CC(=O)N(CC(=O)N(C)C)c1ccccc1,Potency,[4],"inconclusive [activator, partial curve, poor fit]"
CC(C)c1cccc(O)c1,Potency,[3],"inconclusive [activator, single point]"
same,Potency,[4],"inconclusive [activator, single point]"
CCc1c(C)[nH]c2c1C(=O)C(CN1CCOCC1)CC2 (configuration not stated),Potency,[4],inactive
CC(C)(C)C(=O)CCc1ccc(Cl)cc1,Potency,[4],inactive
CCCc1ccc(O)c(OC)c1,Potency,[4],inactive
c1cnc2cc3c(cc2n1)C1CNCC3C1,Potency,[4],inactive
CC(C)C(=O)O,Potency,[4],inactive
Cc1ccc(S)cc1,Potency,[3],active: 17.4 µM
same,Potency,[4],active: 17.4 µM
COC(=O)c1cc(Cl)c(NC(C)=O)cc1OC,Potency,[4],inactive
C[C@]12C=CC(=O)C=C1[C@@H](F)C[C@@H]1[C@@H]2[C@@H](O)C[C@@]2(C)[C@H]1CC[C@]2(O)C(=O)CO,Potency,[4],inactive
CC(=O)OCCC(C)C,Potency,[4],inactive
O=C(OCCOCCOCCOC(=O)c1ccccc1)c1ccccc1,Potency,[3],"inconclusive [activator, single point]"
same,Potency,[4],"inconclusive [activator, single point]"
NCCCN1CCOCC1,Potency,[4],inactive
CC(=O)Oc1ccc(C)cc1,Potency,[3],"inconclusive [activator, single point]"
same,Potency,[4],"inconclusive [activator, single point]"
CCN(CC)CCOC(=O)C1(c2ccccc2)CCCC1,Potency,[4],"inconclusive [activator, single point]"
